Test results reported in the supplement of paper PMC7826260.
This is one part of the list. One pool of 16,384 single-stranded DNAs met each Rep nickase domain in vitro for 1 h at 37 °C with 3 µM enzyme; only the middle of the 90-letter strands is printed. A value is the log2 ratio of uncut reads to the pool without enzyme; strong cutting gives strongly negative numbers. There is no active / inactive call. Counts are relative to all reads; where an enzyme cuts many sequences, the uncut ones exceed 0.

Tests used:
Assay in all cases: uncleaved DNA left, log2 of reads against the no-enzyme library (log2 ratio); higher = less cleavage (more negative = more Rep cleavage of the k-mer); sequences stand for … in CTCGTCCG…ACCGGAGA
[1] = system: T1, Rep nickase domain of Muscovy duck circovirus
T1 sequence (protein, residues 1-111, tag omitted): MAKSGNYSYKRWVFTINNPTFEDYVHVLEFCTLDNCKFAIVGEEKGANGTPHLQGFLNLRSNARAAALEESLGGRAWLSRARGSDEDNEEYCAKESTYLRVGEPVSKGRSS
Procedure: (§1)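 A pool of 90-nt single-stranded DNAs with seven random bases just before the constant AC of the nick site (name = the seven bases) was cut by 3 µM recombinant His6-SUMO-tagged Rep nickase domain (300 nM DNA, 50 mM HEPES pH 8.0, 50 mM NaCl, 1 mM MnCl2, 1 h, 37 °C, three replicates). Uncut DNA was amplified and sequenced.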

[2] = system: T2, Rep nickase domain of banana bunchy top virus
T2 sequence (protein, residues 1-94, tag omitted): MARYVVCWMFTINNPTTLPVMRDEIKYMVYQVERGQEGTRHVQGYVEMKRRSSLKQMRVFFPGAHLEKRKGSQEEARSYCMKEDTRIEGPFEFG
Procedure: as §1

[3] = system: T3, Rep nickase domain of cabbage leaf curl virus
T3 sequence (protein, residues 1-116, tag omitted): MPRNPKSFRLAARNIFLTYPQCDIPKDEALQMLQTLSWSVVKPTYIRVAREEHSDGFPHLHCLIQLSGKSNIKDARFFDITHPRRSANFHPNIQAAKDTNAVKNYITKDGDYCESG
Procedure: as §1

[4] = system: T4, Rep nickase domain of chickpea chlorotic dwarf virus
T4 sequence (protein, residues 1-124, tag omitted): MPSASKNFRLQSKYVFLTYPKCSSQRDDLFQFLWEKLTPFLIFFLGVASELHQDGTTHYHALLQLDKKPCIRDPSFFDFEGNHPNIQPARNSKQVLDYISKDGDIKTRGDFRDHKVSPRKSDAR
Procedure: as §1

[5] = system: T5, Rep nickase domain of faba bean necrotic yellows virus
T5 sequence (protein, residues 1-98, tag omitted): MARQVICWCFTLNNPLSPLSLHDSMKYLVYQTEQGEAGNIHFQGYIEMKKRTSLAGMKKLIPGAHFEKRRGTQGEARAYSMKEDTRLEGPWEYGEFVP
Procedure: as §1

[6] = system: T6, Rep nickase domain of maize striate mosaic virus
T6 sequence (protein, residues 1-117, tag omitted): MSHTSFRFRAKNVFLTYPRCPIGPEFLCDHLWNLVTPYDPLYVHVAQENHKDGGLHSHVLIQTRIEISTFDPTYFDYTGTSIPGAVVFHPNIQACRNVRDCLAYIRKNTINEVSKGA
Procedure: as §1

[7] = system: T7, Rep nickase domain of porcine circovirus 2
T7 sequence (protein, residues 2-116, tag omitted): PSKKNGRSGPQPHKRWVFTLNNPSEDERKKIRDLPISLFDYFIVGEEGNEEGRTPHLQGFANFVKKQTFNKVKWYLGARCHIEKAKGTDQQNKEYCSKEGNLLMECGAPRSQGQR
Procedure: as §1

[8] = system: T8, Rep nickase domain of tomato yellow leaf curl virus
T8 sequence (protein, residues 1-136, tag omitted): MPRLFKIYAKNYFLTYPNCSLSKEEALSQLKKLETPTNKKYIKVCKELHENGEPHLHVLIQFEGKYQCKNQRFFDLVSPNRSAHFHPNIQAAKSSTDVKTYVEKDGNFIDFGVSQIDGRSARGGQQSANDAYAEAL
Procedure: as §1

[9] = system: T9, Rep nickase domain of wheat dwarf virus
T9 sequence (protein, residues 1-137, tag omitted): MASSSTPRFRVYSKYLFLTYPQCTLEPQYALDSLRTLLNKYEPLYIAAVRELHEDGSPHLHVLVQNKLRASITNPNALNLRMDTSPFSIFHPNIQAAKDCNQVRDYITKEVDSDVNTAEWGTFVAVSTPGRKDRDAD
Procedure: as §1

Sequence	uncleaved DNA left (log2) [1]	uncleaved DNA left (log2) [2]	uncleaved DNA left (log2) [3]	uncleaved DNA left (log2) [4]	uncleaved DNA left (log2) [5]	uncleaved DNA left (log2) [6]	uncleaved DNA left (log2) [7]	uncleaved DNA left (log2) [8]	uncleaved DNA left (log2) [9]
CAGCGGA	0.0526	-0.00626	-0.329	-0.329	-0.0393	-0.72	-0.13	-0.0377	-0.127
TTCATCG	0.102	-0.0223	-0.803	-0.524	0.123	-1.07	0.198	0.0448	0.00711
CTGCCTG	-0.143	0.000343	-0.0913	0.0698	0.0748	-0.0329	-0.201	0.149	0.0254
CTCTGCG	0.0418	0.121	-0.578	0.413	0.022	-0.24	0.138	-0.166	0.0466
TTTGACG	0.0173	-0.0203	-0.788	-0.477	0.164	-1.14	0.118	0.124	-0.0955
TTTAAGG	0.124	0.0922	0.564	1.52	0.036	1.94	0.12	-0.112	0.117
ACATACA	-0.0559	-0.0327	-0.258	-1.89	0.0528	-0.848	-0.0366	-0.12	-0.0643
GTCCCTG	0.0414	0.0371	0.195	0.816	-0.0601	1.68	0.126	-0.0384	0.00176
GCCTATA	0.0498	-0.0314	0.146	-0.144	-0.102	0.319	0.0532	0.0995	0.0337
AAGTCCG	-0.0379	0.0048	-0.788	-0.58	-0.0632	-1.04	-0.236	-0.0329	-0.057
AGAGACT	0.0187	0.0954	-0.00975	0.797	0.0293	1.68	0.0353	-0.0752	0.129
CGACTGC	0.0296	0.00191	-0.0757	0.549	0.00866	1.64	0.0625	-0.0277	0.0302
AATGTCA	-0.0595	-0.111	-0.208	-1.53	-0.0555	-0.418	-0.105	0.0124	-0.0698
GGAGTTG	0.149	0.221	0.394	0.846	0.28	0.998	0.313	0.132	0.189
ATTCTGC	0.0108	0.0206	-0.369	-0.479	-0.00244	-1.14	0.0441	0.00556	-0.0313
TTTTTGT	-1.39	-0.101	-0.0645	-0.774	-0.0416	-1.01	-0.73	-0.102	-0.0813
ATAGCAT	0.0175	0.0333	0.0228	0.153	0.0306	-0.171	0.0787	0.0145	0.0083
CCATCCA	-0.00738	-0.0101	-0.0312	-1.11	0.0502	-0.605	0.0554	0.103	0.0649
TAGTAAA	-0.0876	-0.05	0.264	-0.778	-0.0868	-0.106	-2.75	-0.00415	-0.0264
TACTGTT	-3.38	-3.41	-3.48	-2.85	-0.683	-0.0561	-3.98	-0.141	-1.05

Sequence	uncleaved DNA left (log2) [1]	uncleaved DNA left (log2) [2]	uncleaved DNA left (log2) [3]	uncleaved DNA left (log2) [4]	uncleaved DNA left (log2) [5]	uncleaved DNA left (log2) [6]	uncleaved DNA left (log2) [7]	uncleaved DNA left (log2) [8]	uncleaved DNA left (log2) [9]
GTGTTGC	-0.0377	-0.157	0.0388	0.406	-0.0411	0.443	-0.00409	-0.0518	-0.018
GAGCTTA	-0.0254	-0.0144	0.122	-0.487	-0.175	0.738	-0.947	-0.0885	-0.0848
ATGATGG	0.102	-0.0559	-0.17	0.0717	0.0881	-0.667	0.134	-0.106	-0.00868
GGCTAGA	-0.0283	0.0121	0.467	1.12	-0.00403	1.5	0.194	0.125	0.184
GACTCAT	-0.124	-0.0269	0.303	-0.131	-0.064	1.23	-2.76	0.0373	0.0805
ATGACAT	0.0829	0.112	0.826	1.94	-0.0814	2.13	0.193	0.0951	0.224
AGAGACC	-0.0364	-0.00698	0.0529	0.808	-0.0151	0.902	0.0975	0.000328	0.0313
TATTTGA	-1.68	-0.0166	-0.00395	-0.499	0.0982	-0.937	-0.431	0.113	0.0323
CTATGCA	-0.0564	0.0384	-0.66	-0.904	-0.012	-1.18	-0.0162	0.0612	0.0102
ATCACAT	0.071	0.0433	0.0945	0.0271	0.0583	-0.307	0.136	0.0613	0.168
AGAAGCG	0.0291	-0.00206	-0.657	0.449	0.109	-0.637	0.208	0.0897	0.0248
TTACTCC	-0.112	-0.112	0.119	-1.03	-0.0367	0.493	-0.0736	-0.104	-0.0365
TTGTCCA	0.0685	0.0714	0.243	-0.356	0.0247	0.0752	-0.205	0.117	0.0581
AGTCTGT	0.142	-0.0404	0.0797	0.744	0.0129	1.32	-1.2	-0.00622	0.0994
CAGTGAA	-0.0678	-0.053	-0.0788	0.0627	0.0159	0.0411	-2.68	0.00201	-0.0967
CGATGGA	0.0338	-0.0493	-0.0292	0.33	-0.0235	0.39	0.085	0.0172	-0.114
AGGTCAT	0.0493	0.0717	0.808	1.82	-0.0394	2.09	0.0977	0.0822	0.159
TGAGCTC	-0.102	-0.00771	0.118	0.284	0.0187	0.686	0.0416	0.0167	-0.0853
AGAAATT	0.113	0.098	0.106	-1.8	-0.0459	0.221	-1.2	0.158	0.0306
ATGATTA	-0.111	-0.058	-0.323	-1.28	0.095	-0.602	-0.0992	-0.0769	-0.0644

Sequence	uncleaved DNA left (log2) [1]	uncleaved DNA left (log2) [2]	uncleaved DNA left (log2) [3]	uncleaved DNA left (log2) [4]	uncleaved DNA left (log2) [5]	uncleaved DNA left (log2) [6]	uncleaved DNA left (log2) [7]	uncleaved DNA left (log2) [8]	uncleaved DNA left (log2) [9]
AATTGAA	-0.818	-0.198	-0.396	-0.727	0.126	-1.13	-2.57	0.0673	-0.000853
GGCTCTC	-0.173	-0.0885	0.238	0.75	-0.0455	1.27	-0.149	-0.0716	0.0488
AAATGAG	0.143	0.0886	-0.615	0.139	0.337	-0.749	0.285	0.157	0.105
TCCCGTA	0.0107	-0.0127	0.127	-0.515	-0.0751	-0.683	-0.0329	0.0339	-0.114
ATTTATG	0.0119	-0.0732	-0.572	-0.671	0.0165	-1.05	0.0456	-0.0407	-0.0154
CCGGGCC	0.0318	0.115	0.324	0.682	-0.0134	1.24	0.156	0.0464	0.118
AATTTGG	-0.000184	-0.022	-0.263	-0.2	-0.00525	-0.935	-0.00736	-0.0019	0.0655
TCGGCGC	0.0764	-0.0165	-0.656	-0.352	0.144	-0.89	0.0655	-0.0538	-0.107
TGGCCTC	-0.118	0.0778	0.263	0.623	0.0654	1.2	0.0504	-0.0397	0.0162
TAGATCT	-0.0653	-1.82	-2.1	-2.72	-1.38	-0.341	-3.65	-0.028	-0.208
AGTCGGG	0.00249	-0.157	-0.224	-0.137	0.0104	-0.54	0.0331	-0.145	-0.18
AGCCATC	-0.0816	-0.11	0.104	0.585	-0.269	-0.164	-0.0306	0.0274	0.0443
CATTGAT	-2.68	-3.47	-0.615	-0.81	-0.0627	-1.02	-3.49	-0.0417	0.00636
ATCCCCA	-0.217	-0.182	-0.0875	-0.933	-0.165	-0.484	-0.356	-0.182	-0.102
CGCCCAC	0.0542	0.0681	-0.0215	-0.115	0.00556	-0.134	-0.0728	0.0505	0.0936
TCGCACT	-0.271	-0.244	-0.0782	-1.66	-0.209	-0.263	-0.389	-0.152	-0.19
TCAAATG	0.0635	0.0667	-0.211	-0.207	0.0373	-0.76	0.165	0.048	0.115
ATGCTTG	0.0464	0.00476	-0.182	-0.744	-0.0121	-0.536	0.194	0.0135	0.0409
CAGGACC	0.118	0.072	0.282	0.768	0.136	0.432	0.0756	0.0271	0.25
CTGAGAG	0.0589	0.0379	-0.573	-0.291	0.205	-0.936	0.236	0.124	-0.0879
